According to article PMC11947617, “Fine‐tuned interactions between globular and disordered regions of single‐stranded DNA binding (SSB) protein are required for dynamic condensation under physiological conditions” (Protein Science : A Publication of the Protein Society, 2025):
No end group written: not given here. fluorescein = fluorescein label

Tests used:
Conditions in all cases: both partners purified
[1] = molecular target: T1, fluorescein-labeled SSB C-terminal peptide (E. coli); assay: fluorescence polarisation; 15 nM flu-CTP titrated with SSBdC; pH 3 (20 mM citrate, 50 mM KGlu, 5 mM Mg(OAc)2); 25°C
T1 construct: also called flu-CTP; labeled C-terminal peptide
T1 peptide: fluorescein-MDFDDDIPF

[2] = molecular target: T1, fluorescein-labeled SSB C-terminal …; assay: fluorescence polarisation; 15 nM flu-CTP titrated with SSBdC; pH 8.5 (20 mM Tris, 50 mM KGlu, 5 mM Mg(OAc)2); 25°C
[3] = molecular target: T1, fluorescein-labeled SSB C-terminal …; assay: fluorescence polarisation; 15 nM flu-CTP titrated with SSBdC; pH 8 (20 mM Tris, 50 mM KGlu, 5 mM Mg(OAc)2); 25°C
[4] = molecular target: T1, fluorescein-labeled SSB C-terminal …; assay: fluorescence polarisation; 15 nM flu-CTP titrated with SSBdC; pH 5.5 (20 mM MES, 50 mM KGlu, 5 mM Mg(OAc)2); 25°C
[5] = molecular target: T1, fluorescein-labeled SSB C-terminal …; assay: fluorescence polarisation; 15 nM flu-CTP titrated with SSBdC; pH 4.5 (20 mM MES, 50 mM KGlu, 5 mM Mg(OAc)2); 25°C
[6] = molecular target: T1, fluorescein-labeled SSB C-terminal …; assay: fluorescence polarisation; 15 nM flu-CTP titrated with SSBdC; pH 6 (20 mM MES, 50 mM KGlu, 5 mM Mg(OAc)2); 25°C
[7] = molecular target: T1, fluorescein-labeled SSB C-terminal …; assay: fluorescence polarisation; 15 nM flu-CTP titrated with SSB or SSBdC; standard LLPS buffer with 30 mg/mL PEG 20,000; 25°C; quadratic binding equation
[8] = molecular target: T1, fluorescein-labeled SSB C-terminal …; assay: fluorescence polarisation; 15 nM flu-CTP titrated with SSBdC; pH 9.5 (20 mM Tris, 50 mM KGlu, 5 mM Mg(OAc)2); 25°C
[9] = molecular target: T1, fluorescein-labeled SSB C-terminal …; assay: fluorescence polarisation; 15 nM flu-CTP titrated with SSBdC; pH series, pH 7.5 (20 mM Tris, 50 mM KGlu, 5 mM Mg(OAc)2); 25°C
[10] = molecular target: T1, fluorescein-labeled SSB C-terminal …; assay: fluorescence polarisation; 15 nM flu-CTP titrated with SSB or SSBdC; standard LLPS buffer with 300 mM KCl (Table S2; methods and Figure 5 legend say 300 mM NaCl); 25°C
[11] = molecular target: T1, fluorescein-labeled SSB C-terminal …; assay: fluorescence polarisation; 15 nM flu-CTP titrated with SSBdC; standard LLPS buffer with 300 mM KGlu and 30 mg/mL PEG; 25°C; quadratic binding equation
[12] = molecular target: T1, fluorescein-labeled SSB C-terminal …; assay: fluorescence polarisation; 15 nM flu-CTP titrated with SSBdC; pH 4 (20 mM citrate, 50 mM KGlu, 5 mM Mg(OAc)2); 25°C
[13] = molecular target: T1, fluorescein-labeled SSB C-terminal …; assay: fluorescence polarisation; 15 nM flu-CTP titrated with SSBdC; pH 9 (20 mM Tris, 50 mM KGlu, 5 mM Mg(OAc)2); 25°C
[14] = molecular target: T1, fluorescein-labeled SSB C-terminal …; assay: fluorescence polarisation; 15 nM flu-CTP titrated with SSBdC; pH 5 (20 mM MES, 50 mM KGlu, 5 mM Mg(OAc)2); 25°C
[15] = molecular target: T1, fluorescein-labeled SSB C-terminal …; assay: fluorescence polarisation; 15 nM flu-CTP titrated with SSB or SSBdC; standard LLPS buffer (20 mM Tris-OAc pH 7.5, 50 mM KGlu, 5 mM Mg(OAc)2), no PEG; 25°C; quadratic binding equation
[16] = molecular target: T1, fluorescein-labeled SSB C-terminal …; assay: fluorescence polarisation; 15 nM flu-CTP titrated with SSBdC; standard LLPS buffer with 300 mM KGlu; 25°C; quadratic binding equation
[17] = molecular target: T1, fluorescein-labeled SSB C-terminal …; assay: fluorescence polarisation; 15 nM flu-CTP titrated with SSBdC; pH 7 (20 mM Tris, 50 mM KGlu, 5 mM Mg(OAc)2); 25°C
[18] = molecular target: T1, fluorescein-labeled SSB C-terminal …; assay: fluorescence polarisation; 15 nM flu-CTP titrated with SSBdC; pH 10 (20 mM Tris, 50 mM KGlu, 5 mM Mg(OAc)2); 25°C
[19] = molecular target: T1, fluorescein-labeled SSB C-terminal …; assay: fluorescence polarisation; 15 nM flu-CTP titrated with SSBdC; pH 6.5 (20 mM MES, 50 mM KGlu, 5 mM Mg(OAc)2); 25°C
[20] = molecular target: T1, fluorescein-labeled SSB C-terminal …; assay: fluorescence polarisation; 15 nM flu-CTP titrated with SSBdC; pH 3.5 (20 mM citrate, 50 mM KGlu, 5 mM Mg(OAc)2); 25°C

B1: SSBdC, CTP-less SSB variant comprising […] (domain or fragment)
chain: not shown
Kd [1]: 330 nM | Kd [2]: 2600 nM | Kd [3]: 2200 nM | Kd [4]: 1200 nM | Kd [5]: 510 nM | Kd [6]: 850 nM | Kd [7]: 80 nM | Kd [8]: 6500 nM | Kd [9]: 2000 nM | Kd [10]: > 100000 nM | Kd [11]: 5900 nM | Kd [12]: 930 nM | Kd [13]: 5000 nM | Kd [14]: 650 nM | Kd [15]: 2400 nM | Kd [16]: 12000 nM | Kd [17]: 940 nM | Kd [18]: 6900 nM | Kd [19]: 1000 nM | Kd [20]: 600 nM
